PubChem BioAssay AID1476 (National Center for Advancing Translational Sciences (NCATS), 2009)
Several values for one entry are separate records, joined by “and”; a condition that tells them apart may be missing. Equal values may be shown once. The whole screen tested about 200,000 compounds, of which about 4,500 (2.2%) were called active. Inconclusive means that the source gave no clear call. Such entries were picked first, then a sample of the others. The call rests on the fitted dose curve; in most records, active means well fitted inhibition curve with a large enough effect; inconclusive means small, poorly fitted or top-dose-only effect, or effect the other way; inactive means flat fitted curve, though single readings scatter. A potency beside an inconclusive call is a rough fit, not a confirmed value.

biological target: Cruzipain (Trypanosoma cruzi) (UniProt P25779); experiment: qHTS Assay for Promiscuous and Specific Inhibitors of Cruzain (without detergent); conditions: purified cruzain, Z-FR-AMC fluorescence, no detergent; further: nearly all actives have a fitted effect of over 40% in size;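 on max response, negative = inhibition: plate controls were enzyme without inhibitor for no effect and buffer without enzyme for full effect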
Sequence of UniProt P25779 (P25779 whole entry, looked up): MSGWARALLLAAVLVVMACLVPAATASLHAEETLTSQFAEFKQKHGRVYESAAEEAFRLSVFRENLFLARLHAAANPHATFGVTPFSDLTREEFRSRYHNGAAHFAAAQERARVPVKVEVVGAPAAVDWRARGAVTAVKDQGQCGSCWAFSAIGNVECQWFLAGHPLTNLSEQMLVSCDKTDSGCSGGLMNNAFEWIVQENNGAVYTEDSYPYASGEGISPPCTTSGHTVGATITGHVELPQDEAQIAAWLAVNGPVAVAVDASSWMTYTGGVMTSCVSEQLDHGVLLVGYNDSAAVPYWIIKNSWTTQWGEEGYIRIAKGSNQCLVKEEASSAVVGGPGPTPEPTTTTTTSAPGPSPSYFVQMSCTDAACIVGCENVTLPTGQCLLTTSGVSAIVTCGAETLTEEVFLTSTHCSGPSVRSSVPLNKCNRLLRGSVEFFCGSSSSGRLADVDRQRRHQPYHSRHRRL
Summary of the method: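 Purified cruzain at 1.5 nM, pre-incubated 15 min with compound at room temperature in 100 mM sodium acetate pH 5.5, 5 mM DTT, 0.00005% Triton X-100. Reaction started with 2 uM Z-FR-AMC; AMC fluorescence increase over 60 s gives rate.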
Potency means the concentration at half of the fitted maximal effect; tags describe the fitted curve by direction and shape.

| Structure (SMILES) | Potency | max response, negative = inhibition |
| --- | --- | --- |
| CCOC(=O)C1CCCN(c2cc(C)nc3cc(-c4ccc(F)cc4)nn23)C1 (stereo not given) | inconclusive: 39.8 µM [activator, single point] |  |
| COc1cccc([C@@H]2Oc3ccc(OC)cc3C[C@H]2OC(=O)NS(=O)(=O)c2ccc(F)cc2)c1 |  | inactive: -3.34% |
| COc1cc(-c2nc3nc(C)cc(C)n3c2Nc2ccc(Cl)cc2)ccc1O | inconclusive: 25.1 µM [activator, single point] |  |
| CCOC(=O)C(=CNc1ncccc1C)C(=O)OCC | inconclusive: 39.8 µM [activator, single point] |  |
| CCN(CC)c1ccc(NC(=O)/C=C\c2ccccc2Cl)cc1 | active: 25.1 µM |  |
| Cc1ccc(C)c(S(=O)(=O)N2CCN(C(C(=O)Nc3ccc(F)cc3)c3ccccc3)CC2)c1 (stereo not given) | active: 25.1 µM |  |
| CCOc1ccc(C(=O)Nc2ccc(NC(=O)c3ccco3)c(Cl)c2)cc1Br | inconclusive: 25.1 µM [inhibitor, single point] |  |
| C/C(=N\NC(=O)c1nn(C)c(C)c1Br)c1cccc(NC(=O)c2ccc(F)cc2)c1 | inconclusive: 39.8 µM [activator, single point] |  |
| O=C(c1cc(-c2ccc(Cl)cc2Cl)on1)N1CCN(C(=O)c2ccco2)CC1 | inconclusive: 39.8 µM [activator, single point] |  |
| CCOC(=O)c1c(NC(=O)CSc2nnnn2C)sc(C)c1-c1ccc(C)cc1 | inconclusive: 25.1 µM [activator, single point] |  |
| CC(=O)C1=C(c2ccccc2)NC(=S)NC1c1cc(Cl)c(OC(C)C)c(Cl)c1 (stereo not given) | inconclusive: 20 µM [inhibitor, single point] |  |
| O=S(=O)(c1ccc(Cl)cc1)c1nc(-c2ccco2)oc1SCc1ccccc1F | inconclusive: 31.6 µM [inhibitor, single point] |  |
| CN(C(=O)CSc1nnc(COc2ccccc2)o1)c1ccccc1 |  | inactive: -14.8% |
| CCOC(=O)N1CCN(C(=O)c2ccc3c(c2)sc2nc(-c4ccc(OC)cc4)cn23)CC1 | inconclusive: 39.8 µM [activator, single point] |  |
| CSc1nc2ccccc2cc1/C=C(\C#N)c1ccc(Cl)cc1Cl | inconclusive: 39.8 µM [inhibitor, single point] |  |
| O=C(CCn1c(=O)c2ccccc2n(CC(=O)NCCC2=CCCCC2)c1=O)NCc1ccco1 | inconclusive: 31.6 µM [inhibitor, single point] |  |
| COc1ccccc1NC(=O)C1=C(C)Nc2nc(-c3ccc(N(C)C)cc3)nn2C1c1ccncc1 (stereo not given) | inconclusive: 31.6 µM [activator, single point] |  |
| CC1CCCC(NC(=O)COC(=O)c2cc(S(=O)(=O)N3CCCCC3)ccc2N2CCOCC2)C1C (stereo not given) | inconclusive: 39.8 µM [activator, single point] |  |
| CCOC(=O)c1[nH]c2ccc(OCC)cc2c1NC(=O)CN1CCN(c2ccccc2)CC1 | inconclusive: 31.6 µM [activator, single point] |  |
| COc1ccc(OC)c(-n2c3c(cc(-c4nc(-c5ccc(Cl)cc5)cs4)c2=O)C(=O)CC(C)(C)C3)c1 |  | inactive: 14.1% |

| Structure (SMILES) | Potency | max response, negative = inhibition |
| --- | --- | --- |
| O=C(c1ccc2c(c1)N(Cc1ccccc1)C(=O)c1ccccc1S2(=O)=O)N1CCc2ccccc21 | inconclusive: 39.8 µM [inhibitor, single point] |  |
| CC(CNc1ccc([N+](=O)[O-])c2cccnc12)Nc1c([N+](=O)[O-])cc(C(F)(F)F)cc1[N+](=O)[O-] (stereo not given) | inconclusive: 31.6 µM [inhibitor, single point] |  |
| O=C(CSc1nccn1C1CCCC1)Nc1cc(C(F)(F)F)ccc1Cl |  | inactive: 9.92% |
| CCOC(=O)c1c(NC(=O)c2cc(=O)c3cc(C)cc(C)c3o2)sc(C)c1C |  | inactive: -9.1% |
| CCOc1ccccc1NC(=O)C(=O)/C=C(\O)c1cc(OC)ccc1OC | inconclusive: 31.6 µM [inhibitor, single point] |  |
| NCCS(=O)O |  | inactive: -2.24% and inactive: 6.4% |
| COc1ccc(OC)c(C2=NNC(=NCc3ccc4c(c3)OCO4)SC2)c1 | active: 12.6 µM |  |
| COC(=O)Cn1c(=NC(=O)c2cc(OC)cc(OC)c2)sc2cc(OC)ccc21 | inconclusive: 39.8 µM [activator, single point] |  |
| Cc1ccc2c(=O)c(C(=O)c3ccc(F)cc3)cn(CC(=O)Nc3ccc4c(c3)OCCO4)c2n1 |  | inactive: 6.42% |
| COCCn1c(-c2ccc(OC(F)(F)C(F)C(F)(F)F)cc2)nc2c1c(=O)[nH]c(=O)n2CC(C)C (stereo not given) | inconclusive: 39.8 µM [activator, single point] |  |
| COc1cc(OC)c(NS(=O)(=O)c2coc(C(N)=O)c2)cc1Cl |  | inactive: 18.8% |
| Cc1ccc(C(=O)NC(=S)Nc2cc(-c3nc4ccccc4s3)ccc2C)cc1 | inconclusive: 15.8 µM [inhibitor, single point] |  |
| Cc1ccc(-n2c(=O)c3c(c4cc(C)ccc4n3C)n(CC(=O)c3ccc(Cl)cc3)c2=O)cc1 | inconclusive: 7.94 µM [inhibitor, single point] |  |
| COC(=O)c1ccccc1NC(=O)c1cccc(COc2ccccc2Cl)c1 | inconclusive: 31.6 µM [inhibitor, single point] |  |
| COc1cc(NC(=O)C(Cc2ccccc2)NS(=O)(=O)c2cccs2)cc(OC)c1 (stereo not given) |  | inactive: -28% |
| CC(C)NC(=S)NCc1cccnc1 | inconclusive: 1 µM [activator, single point] |  |
| Cc1ccc(-c2nnn(CC(=O)N3CCN(c4nc5ccccc5s4)CC3)n2)cc1 | active: 10 µM |  |
| O=C(CS(=O)(=O)c1cccc2nsnc12)NCc1ccccc1 |  | inactive: 6.58% |
| C=C1C(=O)C=C2CN(C(=O)c3ccccc3)[C@@](Cc3ccc(F)cc3)(C(=O)OC)[C@@H]12 | inconclusive: 39.8 µM [activator, single point] and inconclusive: 31.6 µM [activator, single point] |  |
| COc1ccc(-c2cnc(C)o2)cc1S(=O)(=O)Nc1ccc(OC(F)(F)F)cc1 | inconclusive: 39.8 µM [activator, single point] |  |
